The supplement of paper PMC10670038
Where a name gives a salt, the structure may show the parent alone. ± gives the standard deviation of the averaged measurements. Over roughly 2,000 compounds, “relative cell viability vs DMSO, compound + 0.2 uM CuET” has its median near 1; the lowest 2% begin near 0.25. This is one part of the list.

test system: TE10; assay: relative cell viability vs DMSO, compound + 0.2 uM CuET (fraction); TE10 is an esophageal squamous carcinoma line; higher = less cytotoxic; settings: 2 µM; co-treatment: CuET (bis(diethyldithiocarbamate)copper) 0.2 uM; 48 h
Method: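 TE10 ESCC cells (1,000/well, 384-well plates) were treated with Selleck bioactive library compounds at 2 uM combined with 0.2 uM CuET (copper diethyldithiocarbamate) for 48 h. Viability was read by CellTiter-Glo and expressed relative to DMSO wells. Two technical replicates (A, B).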

Structure (SMILES) | relative cell viability
CNC1CCCN(c2c(F)cc3c(=O)c(C(=O)O)cn(C4CC4)c3c2OC)C1 (configuration not stated) [Balofloxacin] | 1.07 ± 0.17
C[C@@H](Oc1ccc2[nH]nc(/C=C/c3cnn(CCO)c3)c2c1)c1c(Cl)cncc1Cl | 0.471 ± 0.018
CO[C@H]1/C=C/O[C@@]2(C)Oc3c(C)c(O)c4c(O)c(c(/C=N/N5CCN(C6CCCC6)CC5)c(O)c4c3C2=O)NC(=O)/C(C)=C\C=C\[C@H](C)[C@H](O)[C@@H](C)[C@@H](O)[C@@H](C)[C@H](OC(C)=O)[C@@H]1C [Rifapentine] | 0.922 ± 0.086
N=C(N)NC(=N)NCCc1ccccc1 [Phenformin HCl] | 1.02 ± 0.053
CN1CCC(=C2c3ccccc3C=Cc3ccccc32)CC1 [Cyproheptadine HCl] | 1.06 ± 0.016
CC(=O)Nc1ccc(C(=O)Nc2ccccc2N)cc1 [CI994 (Tacedinaline)] | 1.23 ± 0.26
COc1cc2c(Nc3ccc(NC(=O)c4ccccc4)cc3)ncnc2cc1OCCCN1CCOCC1 | 0.9438 ± 0.0089
O=C(O)[C@]1(Cc2cccc(Nc3nccs3)n2)CC[C@@H](Oc2cccc(Cl)c2F)CC1 | 1.02 ± 0.029
CC(=O)S[C@@H]1CC2=CC(=O)CC[C@]2(C)[C@H]2CC[C@@]3(C)[C@@H](CC[C@@]34CCC(=O)O4)[C@H]12 [Spironolactone] | 1.05 ± 0.066
C#Cc1cccc(Nc2ncnc3cc(OC)c(OCCCCCCC(=O)NO)cc23)c1 | 0.182 ± 0.024
CCCc1cc(C(N)=S)ccn1 [Protionamide] | 1.14 ± 0.091
COc1cccc2c1c(O)c(C(=O)N(C)c1ccc(C(F)(F)F)cc1)c(=O)n2C [Tasquinimod] | 1.16 ± 0.11
CN(C)C(=O)Nc1cccc(-c2ccc(N(C)C)cc2)c1 [Atglistatin] | 1.1 ± 0.063
C[C@@]1(C(=O)Nc2ccc(F)nc2)CCCN1c1nc(Nc2cc(C3CC3)n[nH]2)c2cccn2n1 | 0.567 ± 0.15
Clc1ccc(CCC(Cn2ccnc2)Sc2c(Cl)cccc2Cl)cc1 (configuration not stated) [Butoconazole nitrate] | 0.613 ± 0.089
N#Cc1ccc(C(c2ccc(C#N)cc2)n2cncn2)cc1 [Letrozole] | 1.02 ± 0.16
O=C(Nc1cccc(Cl)c1)c1ccccn1 | 1.24 ± 0.1
CCOC(=O)[C@@H](N)Cc1ccc(-c2cc(O[C@H](c3ccc(Cl)cc3-n3ccc(C)n3)C(F)(F)F)nc(N)n2)cc1 [Telotristat Etiprate (LX 1606 Hippurate)] | 0.634 ± 0.087
N=C(NCCCCCCNC(=N)NC(=N)Nc1ccc(Cl)cc1)NC(=N)Nc1ccc(Cl)cc1 [Chlorhexidine HCl] | 1.15 ± 0.21
COc1c2occc2cc2ccc(=O)oc12 [Methoxsalen] | 0.968 ± 0.056
CC(C)CC(N)=O [Isovaleramide] | 1.29 ± 0.042
CN1CCN(C2=Nc3ccccc3Oc3ccc(Cl)cc32)CC1 [Loxapine Succinate] | 0.969 ± 0.015
Cc1nnc(C(=O)NC(C)(C)c2nc(C(=O)NCc3ccc(F)cc3)c(O)c(=O)n2C)o1 [Raltegravir (MK-0518)] | 0.845 ± 0.0038
COC(=O)c1ccc2c(c1)nc(NC(=O)c1ccccc1)n2CCCc1ccccc1 | 0.796 ± 0.021

Structure (SMILES) | relative cell viability
c1ccc(NCc2ccc(CNc3ccccn3)cc2)nc1 | 1.05 ± 0.03
O=C(NC[C@H]1CN(c2ccc(N3CCOCC3=O)cc2)C(=O)O1)c1ccc(Cl)s1 [Rivaroxaban] | 0.809 ± 0.38
C[C@@H]1C[C@H]2[C@@H]3C[C@H](F)C4=CC(=O)C=C[C@]4(C)[C@@]3(F)[C@@H](O)C[C@]2(C)[C@@]1(O)C(=O)CO [Flumethasone] | 0.876 ± 0.027
Cc1cc2c(cc1CC(=O)c1sccc1S(=O)(=O)Nc1onc(C)c1Cl)OCO2 [Sitaxentan sodium] | 1.37 ± 0.41
COc1ccc(-c2ccc3c(N4CCOC[C@@H]4C)nc(N4CCOC[C@@H]4C)nc3n2)cc1CO | 0.659 ± 0.037
CC(C)C[C@H](NP(=O)(O)O[C@@H]1O[C@@H](C)[C@H](O)[C@@H](O)[C@H]1O)C(=O)N[C@@H](Cc1c[nH]c2ccccc12)C(=O)O [Phosphoramidon Disodium Salt] | 1.22 ± 0.018
COc1c(C)c(C(=O)c2ccc(N)c(C(=O)O)c2)n2ccccc12 | 1.28 ± 0.018
Cc1c(C(=O)Nc2ccc(Oc3ccnc4[nH]cc(-c5ccccc5)c34)c(F)c2)c(=O)n(-c2ccc(F)cc2)n1C | 0.94 ± 0.061
CN[C@@H](C)C(=O)N[C@H](C(=O)N1CCC[C@H]1c1nc(C(=O)c2ccc(F)cc2)cs1)C1CCCCC1 | 0.682 ± 0.074
CCCCCCCCCCCCCCCC(=O)OCC(O)C1OC(=O)C(O)=C1O [L-Ascorbyl 6-palmitate] | 1.02 ± 0.04
CCCc1cc(C)[nH]c(=O)c1CNC(=O)c1cc(-c2ccc(N3CCN(C(C)C)CC3)nc2)cc2c1cnn2C(C)C | 1.06 ± 0.06
NC(=O)c1ccc(N(C(N)=O)c2c(F)cccc2F)nc1-c1ccc(F)cc1F | 1.21 ± 0.051
CC(=O)Oc1ccccc1C(=O)Nc1ncc([N+](=O)[O-])s1 [Nitazoxanide] | 0.893 ± 0.026
CC(C)(C)C(=O)Nc1ccc2c(c1)C(=O)C(=O)c1ccccc1-2 | 0.026 ± 0.0042
Nc1c(CC(=O)O)cccc1C(=O)c1ccccc1 [Amfenac Sodium Monohydrate] | 1.121 ± 0.0097
COc1ccc([C@@H]2CC(=O)c3c(O)cc(O)cc3O2)cc1O [Hesperetin] | 1.1 ± 0.052
CCOC(=O)c1[nH]c2cc(Cl)ccc2c1C(C(=O)NC(C)(C)C)N(C=O)Cc1ccc(Cl)cc1 (configuration not stated) | 1.07 ± 0.056
CCCCN1CCCCC1C(=O)Nc1c(C)cccc1C (configuration not stated) [Bupivacaine HCl] | 1.03 ± 0.16
C=C1/C(=C\C=C2/CCC[C@]3(C)[C@@H]([C@H](C)/C=C/[C@H](C)C(C)C)CC[C@@H]23)C[C@@H](O)C[C@@H]1O [Doxercalciferol] | 1.123 ± 0.0018
C[C@H]1O[C@@H](Oc2c(-c3cc(O)c(O)c(O)c3)oc3cc(O)cc(O)c3c2=O)[C@@H](O)[C@@H](O)[C@@H]1O [Myricitrin] | 1.05 ± 0.1
Cc1ccc2c(=O)c3cccc(CC(=O)O)c3oc2c1C [DMXAA (Vadimezan)] | 1.02 ± 0.035
CC(=O)[C@H]1CC[C@H]2[C@@H]3CC=C4C[C@@H](O)CC[C@]4(C)[C@H]3CC[C@]12C [Pregnenolone] | 1.05 ± 0.11
COc1ccc(CC2c3cc(OC)c(OC)cc3CC[N+]2(C)CCC(=O)OCCCCCOC(=O)CC[N+]2(C)CCc3cc(OC)c(OC)cc3C2Cc2ccc(OC)c(OC)c2)cc1OC (configuration not stated) [Atracurium Besylate] | 0.724 ± 0.024
